Results: PMC4336329 (PLoS ONE, 2015)
The campaign covered roughly 310,000 compounds. About 14,000 (4.5%) showed an effect of 50% or more. The effect is printed as a negative number. The list shows a part of the results.

biological target: human ether-à-go-go-related gene (hERG) potassium channel (human, UniProt Q12809); experiment: primary screen, population patch clamp on CHO cells stably expressing hERG
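Note: peak tail current of the secondary pulse compared with the same well before compound.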

Sequence of human ether-à-go-go-related gene (hERG) potassium channel (Q12809 whole entry, looked up): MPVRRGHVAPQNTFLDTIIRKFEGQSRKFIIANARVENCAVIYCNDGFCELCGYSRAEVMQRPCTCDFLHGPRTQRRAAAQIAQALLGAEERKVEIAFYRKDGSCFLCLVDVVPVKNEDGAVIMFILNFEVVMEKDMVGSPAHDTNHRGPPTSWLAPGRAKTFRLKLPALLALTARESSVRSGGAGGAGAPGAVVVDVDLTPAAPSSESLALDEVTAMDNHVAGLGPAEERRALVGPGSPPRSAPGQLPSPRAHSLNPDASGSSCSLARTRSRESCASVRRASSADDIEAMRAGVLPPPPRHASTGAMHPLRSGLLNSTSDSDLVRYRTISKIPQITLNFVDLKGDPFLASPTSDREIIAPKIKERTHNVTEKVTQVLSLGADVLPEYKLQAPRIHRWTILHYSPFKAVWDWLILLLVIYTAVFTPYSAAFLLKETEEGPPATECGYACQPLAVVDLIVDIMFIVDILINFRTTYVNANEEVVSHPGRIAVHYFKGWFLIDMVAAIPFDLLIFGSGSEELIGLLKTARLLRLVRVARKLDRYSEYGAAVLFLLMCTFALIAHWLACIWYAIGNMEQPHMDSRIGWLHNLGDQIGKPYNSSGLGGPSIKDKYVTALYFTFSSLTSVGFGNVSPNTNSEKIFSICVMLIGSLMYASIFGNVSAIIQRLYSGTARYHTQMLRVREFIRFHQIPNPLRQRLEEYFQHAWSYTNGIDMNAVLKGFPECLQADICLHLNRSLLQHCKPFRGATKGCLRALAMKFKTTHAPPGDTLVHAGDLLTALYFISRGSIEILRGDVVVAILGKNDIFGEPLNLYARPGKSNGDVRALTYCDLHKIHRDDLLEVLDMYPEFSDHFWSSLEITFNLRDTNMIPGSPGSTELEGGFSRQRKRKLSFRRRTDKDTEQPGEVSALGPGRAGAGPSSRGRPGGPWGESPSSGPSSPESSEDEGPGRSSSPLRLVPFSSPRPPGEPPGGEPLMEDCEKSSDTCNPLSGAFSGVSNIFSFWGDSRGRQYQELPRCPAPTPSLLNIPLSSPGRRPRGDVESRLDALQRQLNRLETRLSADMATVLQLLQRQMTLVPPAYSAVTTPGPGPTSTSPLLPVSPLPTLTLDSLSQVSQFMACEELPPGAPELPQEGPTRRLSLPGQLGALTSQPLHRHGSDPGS

Row | SMILES | hERG current change (%, negative = inhibition) at 10uM
1 | O=C(N1CCC(n2nc(-c3ccccc3)oc2=O)CC1)C1(c2ccc(Cl)cc2)CC1 | -7.07%
2 | CN(C)CCOc1nc(-c2ccccc2)nc2c1oc1ccccc12 | -44.7%
3 | COCCCNC(=O)c1ccc2c(=O)n(Cc3ccccc3OC)c(=S)[nH]c2c1 | 6.43%
4 | CCN(CC)S(=O)(=O)c1ccc(OC)c(NC(=O)c2cc([N+](=O)[O-])ccc2Cl)c1 | 11.4%
5 | Cc1cccc(N2CN(Cc3cccnc3)CNC2=S)c1 | -3.28%
6 | CCOc1ccc(N2CC(C(=O)NCCC3=CCCCC3)CC2=O)cc1 (stereo not shown) | -11.1%
7 | COc1ccccc1CNC(=O)c1ccc2ccccc2n1 | -12.1%
8 | Cc1sc(NC(=O)c2cccc([N+](=O)[O-])c2)c(C(N)=O)c1-c1ccc(C(C)(C)C)cc1 | -3.34%
9 | CCN(CC)CCNC(=O)Cn1nc(-c2ccccc2)c2ccccc2c1=O | -31%
10 | CCOc1ccc(NC(=O)CN2C(=O)COc3ccc(Cl)cc32)cc1 | 0.412%
11 | Fc1ccc(-n2c(-c3cccs3)nc3nc4ccccc4nc32)cc1 | 9.07%
12 | COc1ccc(-c2cc(C)no2)cc1S(=O)(=O)Nc1ccc(NC(C)=O)cc1 | 14.7%
13 | O=C(CCSCCc1ccccn1)Nc1c(F)cc(F)cc1Br | 8.22%
14 | O=C1CCCC2=C1C1(CCCC1)N=C(Nc1nc3ccccc3s1)N2 | -7.12%
15 | COc1ccc(NC(=O)CCn2cc(C)c3ccccc32)cc1 | 15.5%
16 | O=C1CC(c2ccco2)Cc2c1cnn2-c1nc2ccccc2s1 (stereo not shown) | 0.542%
17 | COCCNC(=O)C(=O)NNC(=O)c1ccccc1OC | 16.2%
18 | C(=C\c1nnc(-c2cccs2)o1)/c1ccccc1 | -9.22%
19 | CC1(C)CC(=O)c2cnc(N3CCc4ccccc4C3)nc2C1 | 7.48%
20 | Brc1ccc(OCCn2ccnc2)cc1 | -4.26%
21 | COc1cccc(N2CCN(CC(=O)Nc3ccccc3C(=O)NCCc3ccccc3)CC2)c1 | 89.9%
22 | Cn1cc(/C=C2\SC(=S)N(NC(=O)c3ccccc3)C2=O)c2ccccc21 | 10.6%

Row | SMILES | hERG current change (%, negative = inhibition) at 10uM
23 | Cc1nn(C(C)C(=O)O)c(=O)c2c1sc1ccccc12 (stereo not shown) | 8.68%
24 | COc1ccc(S(=O)(=O)N2CCN(CC3CC=CCC3)CC2)cc1 (stereo not shown) | -24.7%
25 | OC1(c2ccc(Cl)cc2)CCN(Cc2nc(-c3cnccn3)no2)CC1 | -1.35%
26 | Cc1ccc(NC(=O)c2ccccc2OCc2ccc([N+](=O)[O-])cc2)nc1 | -0.0291%
27 | Cc1ccc(NC(=O)Cc2c(Cl)cccc2Cl)cc1S(=O)(=O)N(C)C | 18.1%
28 | CC(C)(C)NC(=O)CN(Cc1ccc2c(c1)OCO2)C(=O)CNS(=O)(=O)c1ccccc1 | 15.8%
29 | CC(C)Oc1ccc(S(=O)(=O)N2CCOCC2)cc1NC(=O)Cc1c(F)cccc1Cl | 17.7%
30 | CS(=O)(=O)N1CCN(c2ccc([N+](=O)[O-])c(SCc3ccco3)c2)CC1 | -7.13%
31 | Cn1c(CSc2nc3ccc(Br)cc3[nH]2)nc2ccccc21 | -6.66%
32 | Oc1ccc(Cl)cc1-c1cc(C(F)(F)C(F)F)nc(-c2ccccc2)n1 | 6.07%
33 | CCOc1ccc(N2CC(C(=O)Nc3cccc(S(=O)(=O)N4CCCC4)c3)CC2=O)cc1 (stereo not shown) | -24.8%
34 | CCc1ccc2c(c1)cc(C)c1nnc(SCC(=O)Nc3cc(OC)c(OC)cc3C(=O)O)n12 | 5.98%
35 | COc1ccc(NC(=O)c2ccc3c(=O)n(Cc4ccco4)c(=S)[nH]c3c2)c(OC)c1 | 5.49%
36 | Cc1ccc(N=Nc2c(N)nn3c(N)c(C#N)c(C)nc23)cc1 | 15.3%
37 | COc1ccc(OC)c(C2NC(=O)N(C)C(C)=C2C(=O)OCc2ccccc2)c1 (stereo not shown) | -8.64%
38 | COCCn1c(C)cc(/C=N/NC(=O)c2cccnc2)c1C | 41.5%
39 | CCN(CC)C(=O)Nc1ccccc1C | 16.9%
40 | COc1ccc(C(=O)COC(=O)Cn2cnc3ccccc3c2=O)c(OC)c1 | -11.2%
41 | O=C(O)CC1(CC(=O)NCc2ccncc2)CCCCC1 | 4.85%
42 | CCOCCCNCc1cc(Cl)cc(Cl)c1OCC.Cl | -32%
43 | CCOC(=O)Cn1cc(/C=N/NC(=O)CC#N)c2ccccc21 | 10.4%
44 | Cc1c(CN2CC[C@@H](N3CCN(c4ccccn4)CC3)[C@H](O)C2)[nH]c2ccc(F)cc12 | -60.9%

Row | SMILES | hERG current change (%, negative = inhibition) at 10uM
45 | Cc1nc(SCC(=O)NC(=O)NC(C)C)nc(C)c1C | 17.4%
46 | COc1ccc(CCNC(=O)C2CCC(=O)N(C3CC3)C2)c(OC)c1 (stereo not shown) | 7.03%
47 | CCc1cc(=O)n2[nH]c(C)c(-c3ccc(OC)cc3)c2n1 | 1.39%
48 | COc1ccccc1-c1nnc(SCC(=O)NC2CCS(=O)(=O)C2)n1N (stereo not shown) | 9.79%
49 | CCC(=O)Nc1ccc(NC(=O)c2cccc(OC)c2)nc1 | 1.09%
50 | O=C(Sc1nnc(-c2ccccc2)o1)N1c2ccccc2Sc2ccccc21 | 4.95%
51 | O=C(CCc1ccccc1)NC1(Cc2ccccc2)CCN(CCc2cccs2)C1=O (stereo not shown) | -20.4%
52 | Cn1cccc1CC(=O)N/N=C\c1c2ccccc2cc2ccccc12 | -3.92%
53 | CC(NC(=O)C(=O)N/N=C\c1ccc([N+](=O)[O-])cc1)c1ccccc1 (stereo not shown) | 18.2%
54 | CCn1c(C(O)c2cc(OC)c(OC)c(OC)c2)nc2ccccc21 (stereo not shown) | 2.8%
55 | C/C(CC(=O)Nc1ccc(N(C)C)cc1)=N\NC(=O)Cc1csc(N)n1 | 0.601%
56 | C=CCn1c(SCC)nc2sc3c(c2c1=O)CCc1ccccc1-3 | 2.6%
57 | O=c1[nH][nH]c(=O)n1-c1ccccc1 | 10.1%
58 | CCn1c(COc2ccc(Cl)cc2)nnc1SCC(=O)Nc1ccc2c(c1)OCO2 | 3.98%
59 | COc1cccc(/C=C2\SC(N3CCC(C)CC3)=NC2=O)c1OC | -6.29%
60 | CC(C)(CO)C(O)C(=O)NCCCO (stereo not shown) | 11.5%
61 | O=C(NCc1ccc(F)cc1)c1ccc(CS(=O)(=O)c2ccc(Br)cc2)o1 | -17.3%
62 | COc1ccc(N2CCN(S(=O)(=O)c3cccc4nsnc34)CC2)cc1 | 3.48%
63 | O=C(Nc1ccc(Oc2ccsc2C(=O)O)cc1)c1ccccc1F | 10.2%
64 | N=c1c(C(=O)NCc2ccc(F)cc2)cc2c(=O)n3ccccc3nc2n1Cc1cccnc1 | -76.2%
65 | N#Cc1cc2c(nc1SCC(=O)Nc1nccs1)CCCCC2 | 0.217%
66 | CCOC(=O)c1sc(NC(=O)CSc2n[nH]c(-c3ccc(Cl)cc3Cl)n2)c(C#N)c1C | -0.878%

Row | SMILES | hERG current change (%, negative = inhibition) at 10uM
67 | CCOc1ccc(N(CC(=O)Nc2ccc(C)c(C)c2)S(=O)(=O)c2c(C)noc2C)cc1 | 0.581%
68 | Nc1c(N2CCCC2)cc(Cl)c2nonc12 | -22.4%
69 | CC1CCCC(NC(=O)CSc2nncs2)C1C (stereo not shown) | -7.84%
70 | N#C/C(=C\c1ccc([N+](=O)[O-])o1)C(=O)Nc1ccc(F)cc1 | 1.7%
71 | CCN(CC(=O)NCc1cccs1)C(=O)CCc1c[nH]c2ccccc12 | -17.6%
72 | CC1CCCCC1NC1CCN(C)CC1 (stereo not shown) | 23.9%
73 | O=C(c1ccc(NS(=O)(=O)c2ccc(F)cc2)cc1)N1CCOCC1 | 14.9%
74 | CC1(C)Cc2nc3sc4c(SCC(=O)O)ncnc4c3cc2CO1 | 7.89%
75 | O=C(NCCCN1CCN(CCCNC(=O)c2cccc(Cl)c2)CC1)c1cccc(Cl)c1 | -74.4%
76 | COC(=O)C1=C(C)NC(=O)NC1c1ccc(OCC(=O)N2CCCCC2)cc1 (stereo not shown) | 22.4%
77 | Cc1cc(C)c2c(c1)c(C)cc1nnc(SCC(=O)NCc3ccco3)n12 | -8.05%
78 | CCCNC(=O)COC(=O)c1ccc(S(=O)(=O)N2CCCCCC2)cc1 | -13.5%
79 | Cl.O=C(Nc1ccc(C(=O)OC[C@@H]2CCCN3CCCC[C@H]23)cc1)c1cccc(Br)c1 | -69.3%
80 | CNC(=S)Nc1ccc([N+](=O)[O-])c(C)c1 | 13.8%
81 | Cn1c(=O)cc(OCC(=O)Nc2ccccn2)c2ccccc21 | 9.2%
82 | CC(C)n1nc(C(=O)Oc2cc(Cl)ccc2Cl)c2ccccc2c1=O | 4.89%
83 | O=C(c1ccc2ccccc2c1)N1CCN(c2ccccn2)CC1 | -20%
84 | Cc1cc(=O)n2nc(N3CCCC3C(=O)NCCCN3CCCCC3)sc2n1 (stereo not shown) | 7.62%
85 | O=C(c1cccnc1)N1CCc2ccccc21 | -3.38%
86 | Cc1cccc(C)c1OCc1cc(C(=O)N2CCC(C3CCCCC3)C2)no1 (stereo not shown) | 11.4%
87 | COC(=O)c1ccc(/C=N/N2CCN(Cc3ccccc3Cl)CC2)cc1 | 5.88%
88 | COc1cc(/C=C/C(=O)OCC(=O)N2CC3(C)CC2CC(C)(C)C3)ccc1O (stereo not shown) | -13.6%
